In PubChem BioAssay AID652104 (National Center for Advancing Translational Sciences (NCATS), 2013):
Where “and” joins values, the source holds several entries; their conditions need not be identical. Equal values may be shown once. The campaign covered roughly 410,000 compounds. About 7,200 (1.8%) were called active. The inconclusive results got no clear call from the source; some entries with a clear call stand among them for comparison. The call rests on the fitted dose curve; in most records, active means well fitted activation curve with a large enough effect; inconclusive means small, poorly fitted or top-dose-only effect, or another doubt; inactive means no such curve, though single readings can be large or run the other way. Where the call is inconclusive, the potency comes from a doubtful curve fit.

assay: qHTS of TDP-43 Inhibitors; conditions: TDP-43 expressing yeast growth rescue, BacTiter-Glo, 24 h; growth rescue (activation): at 46.1 µM (top of the series) unless noted; further: nearly all actives have a fitted effect of over 50% in size; on growth rescue (activation): % of control where 0% means no effect
Summary of the method: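 Readout is BacTiter-Glo luminescence of cell growth, so inhibitors register as activators. TDP-43-expressing yeast at OD600=0.02 in galactose medium, after raffinose pregrowth to mid-log, were incubated with compound for 24 hr at 30 deg C.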
Potency means the concentration at half of the fitted maximal effect; tags describe the fitted curve by direction and shape.

SMILES	growth rescue (activation)	Potency
COc1cc(N/N=C(\C)c2ccc(O)c(C)c2)nc(-c2ccccc2)n1	inactive: 3.36%	
COc1ccc(C(=O)N/N=C(\C)c2ccccn2)cc1OC	inactive: 13.8%	
COc1ccc2cc(CO)c3cc(OC)c(OC)cc3c2c1		inconclusive: 31.6 µM [activator, single point]
COc1cccc(N/C(SC)=C(/C#N)C(=O)NCc2cccs2)c1		active: 14.1 µM
Cc1cccc(CSc2ccc3nnc(-c4ccccn4)n3n2)c1		inconclusive: 20 µM [activator, partial curve]
O=C(Cc1ccc(Cl)cc1Cl)OCC(=O)c1ccc[nH]1		active: 17.8 µM
O=C(O)Cc1csc(-c2cccc(Oc3ccccc3)c2)n1		inconclusive: 15.8 µM [activator, single point] and inconclusive: 17.8 µM [activator, single point]
COc1ccc(C2(CNC(=O)CCC(=O)O)CCCC2)cc1	inactive: 22%	
O=C(CSc1ccccc1)Nc1cccc(NC(=O)c2ccco2)c1		inconclusive: 15.8 µM [activator, single point]
COC(=O)N/N=C/c1c[n+]([O-])c2ccccc2[n+]1[O-]		inconclusive: 14.1 µM [activator, partial curve]
COc1nc(NC(=O)c2ccc(F)cc2)nc(OC)c1-c1ccccc1		inconclusive: 10 µM [activator, partial curve]
COC(=O)c1ccc(Cn2nnc3sc4c(c3c2=O)CCCC4)cc1		inconclusive: 8.91 µM [activator, partial curve, poor fit]
CCOC(=O)C1CCCN(C(=O)c2cc3c(OC)c(OC)c(OC)cc3[nH]2)C1 (stereo not drawn)	inactive: 5.27%	
COc1cc2c(cc1OC)CN(C(=O)c1cccc([N+](=O)[O-])c1)CC2		active: 22.4 µM
CCOC(=O)c1cccc(NC(=O)C(Cc2ccccc2)NS(=O)(=O)c2cccc3nsnc23)c1 (stereo not drawn)		inconclusive: 35.5 µM [activator, single point]
O=C1C2C3C=CC(C3)C2C(=O)N1c1ncc([N+](=O)[O-])s1 (stereo not drawn)		active: 14.1 µM
O=C(Nc1ccccc1OCc1cc(=O)n2ccccc2n1)c1ccccc1F	inactive: 17.7%	
CS(=O)(=O)N1CCC(C(=O)Nc2ccc(Cl)c(C(F)(F)F)c2)CC1	inactive: -14.8%	
COC(=O)c1c(NC(=O)CN2CCC3(O)CCCCC3C2c2cc(OC)ccc2OC)sc(C)c1C (stereo not drawn)		inconclusive: 31.6 µM [activator, single point]
C=CCCC(=O)N1C[C@H]2CON(C)[C@H]2C[C@H]1c1cccc(Br)c1		inconclusive: 3.98 µM [activator, partial curve]
Cc1cccc(Cn2cc(C(=O)Nc3ccc(S(N)(=O)=O)cc3)ccc2=O)c1		inconclusive: 10 µM [activator, partial curve, poor fit]
COC(=O)c1ccc(N2C(c3cc(OC)cc(OC)c3)=Cc3ccc(-c4cnc(OC)nc4)cc3C2CC(=O)C2CC2)cc1 (stereo not drawn)		inconclusive: 35.5 µM [activator, partial curve, poor fit]
COc1ccccc1-c1cnc2c(Nc3cccc(OC(F)(F)C(F)F)c3)nccn12	inactive: 21.1%	
CCCc1cc(C(=O)OCC(=O)N2CCN(c3ccc(OC)cc3)CC2)sc1C		inconclusive: 35.5 µM [activator, single point]
COc1ccccc1NC(=O)CSc1nnc(COc2ccc(Cl)cc2)o1	inactive: 20.4%	

SMILES	growth rescue (activation)	Potency
Cn1nc(C(F)(F)F)c(C#N)c1N1CCN(c2ccccc2)CC1		inconclusive: 28.2 µM [activator, single point]
Cc1cc(Br)ccc1OCC(=O)NC1CCCC1		inconclusive: 35.5 µM [activator, single point]
O=C(COC(=O)CC1CC2CCC1C2)Nc1cc([N+](=O)[O-])ccc1F (stereo not drawn)		inconclusive: 31.6 µM [activator, partial curve]
CCOC(=O)N1CCN(C(=O)COc2ccc(Br)cc2Cl)CC1		inconclusive: 28.2 µM [activator, single point]
COc1ccc(-c2nnc3sc(-c4ccco4)nn23)cc1OC	inactive: 9.01%	
Cc1cc(S(=O)(=O)NCC(c2ccc(N(C)C)cc2)N2CCOCC2)ccc1F (stereo not drawn)	inactive: 14%	
O=c1[nH]c(=O)n(Cc2ccccc2)c2nc(-c3ccco3)cc(C(F)(F)F)c12	inactive: 0.514%	
CCOc1ccc(C(C)NC(=O)c2cccc(F)c2)cc1 (stereo not drawn)		inconclusive: 25.1 µM [activator, partial curve, poor fit]
COc1ccccc1C1CCN(C(=O)c2ccco2)CC1		inconclusive: 15.8 µM [activator, single point]
COc1ccc(N2CC(NC(=O)c3ccc(OC(C)C)cc3)CC2=O)cc1 (stereo not drawn)	inactive: 7.63%	
CCOC(=O)c1c(CSc2ccc(C)cc2)oc2ccc(O)cc12		active: 22.4 µM
Clc1ccc(CNc2cc(-c3ccccc3)nc3nncn23)cc1		inconclusive: 11.2 µM [activator, partial curve]
CC1Cc2ccccc2N1S(=O)(=O)c1cnc(Cl)c(Cl)c1 (stereo not drawn)		inconclusive: 17.8 µM [activator, partial curve]
CCOC(=O)c1cc(-c2ccccc2)nn1Cc1cc(CC)no1		inconclusive: 3.16 µM [activator, partial curve]
CC(C)C(=O)Nc1nnc(SCC(=O)NC2CC2)s1		inconclusive: 2.82 µM [activator, full curve, poor fit]
C=CCOc1cc(C)nc(-c2ccccc2O)n1		inconclusive: 2 µM [activator, partial curve]
CC(C(=O)O)(C1CCCCC1)C1(O)CCCCC1 (stereo not drawn)		inconclusive: 6.31 µM [activator, single point]
COc1cccc(-n2cc(C(=O)Nc3cc(C)c(Cl)cc3OC)c3ccccc3c2=O)c1	inactive: 20.1%	
COCc1cccc(-c2csc(C(O)c3ccc(F)c(OC)c3)n2)c1 (stereo not drawn)		inconclusive: 12.6 µM [activator, partial curve]
COc1ccc(-c2[nH]ncc2-c2cnn(-c3ccccc3)c2)c(O)c1		inconclusive: 22.4 µM [activator, single point]
Cc1noc(C)c1S(=O)(=O)N1CCCC(C(=O)Nc2ccc(C(C)C)cc2)C1 (stereo not drawn)	inactive: -11.9%	
O=C(O)CNC(=S)N(Cc1cccs1)C1CCCCC1	inactive: 6.14%	
Cc1ccc(NC(=O)CNC(=O)CN2C(=O)c3ccccc3C2=O)cc1		inconclusive: 35.5 µM [activator, partial curve, poor fit]
CN(c1ccccc1)S(=O)(=O)c1ccc(NC(=S)NC(=O)C2CC2)cc1		active: 17.8 µM
CCS(=O)(=O)N1Cc2ccccc2CC1C(=O)Nc1nc2c(C)cccc2s1 (stereo not drawn)		inconclusive: 25.1 µM [activator, single point]

SMILES	growth rescue (activation)	Potency
CC(C)(C)OC(=O)N1CC=C2C(C#N)=C(N)C(C#N)(C#N)C(c3cccs3)C2C1 (stereo not drawn)		inconclusive: 3.98 µM [activator, partial curve]
Clc1ccc(CSc2nncn2-c2ccc3c(c2)OCCO3)cc1		inconclusive: 14.1 µM [activator, single point]
O=C(CS(=O)(=O)c1nc(-c2ccc(Cl)cc2)cn1-c1ccccc1)Nc1ccc(F)cc1F		active: 14.1 µM
Cn1c(=O)n(CCc2ccccc2)c(=O)c2c1nc1n2CCCN1CCc1ccccc1		active: 12.6 µM
Cc1cccc(C(=O)OCC(=O)c2c(C)[nH]c3ccccc23)c1O		inconclusive: 1 µM [activator, full curve]
Clc1ccc(-c2nc3ccc(Cl)cn3c2Cc2ccccc2)cc1		active: 20 µM
CCC(C)Sc1ccc(-c2nc3ccccn3c2NCc2ccccc2)cc1OC (stereo not drawn)	inactive: -88.1%	
COc1ccc(F)cc1-c1cc(C(=O)Nc2ccc(C)c(NS(C)(=O)=O)c2)[nH]n1	inactive: 0%	
O=c1c2ccccc2nnn1CSc1ccc2c(c1)OCCO2		active: 11.2 µM
O=C(CCSCc1ccccc1Cl)N1CCN(c2ccc(F)cc2)CC1		active: 15.8 µM
Cc1nc(-c2cccc(Br)c2)ccc1C(=O)O		inconclusive: 15.8 µM [activator, single point]
COc1ccc(NC(=O)c2cc(-c3cc(F)ccc3OC)n[nH]2)cn1		active: 20 µM
Cc1cccc(/C(N)=N/OC(=O)c2ccoc2C)c1	inconclusive: -72.6% [activator]	
O=C(CCN1CCCC1Cc1ccccc1)c1ccc2c(c1)OCCO2 (stereo not drawn)		inconclusive: 31.6 µM [activator, single point]
COc1ccc(NC(=O)CCCc2nnc3n(CCC(C)C)c(=O)c4sccc4n23)cc1Cl	inactive: 13.6%	
O=C(NCCc1ccccc1)c1ccc2c(c1)OCCO2		inconclusive: 11.2 µM [activator, single point]
C=CCOc1ccc(/C=C2/C(=O)ON=C2C)cc1OC	inconclusive: 56.5% [activator]	
COc1ccc(/C=C/c2onc(C)c2S(=O)(=O)N2CCC(C(=O)N3CCCCC3)CC2)cc1	inactive: -6.76%	
CCC(=O)N(Cc1cc2ccc(C)cc2n2nnnc12)C1CCCCC1		inconclusive: 22.4 µM [activator, partial curve]
CN1CCC(=O)N([C@H](COc2ccccc2)Cc2ccccc2)CC1	inactive: 10.5%	
CCN1C(=O)[C@H]2[C@@H](c3ccc(-c4ccc(OC)cc4)c(OC)c3)N3CCCC[C@@]3(C(=O)OC)[C@H]2C1=O	inactive: 12.3%	
COc1ccccc1N1CC(O)=C(c2nc3ccccc3c(=O)[nH]2)C1=N	inactive: 0.118%	
Cc1cc(C)c(S(=O)(=O)N2CCCC(C(=O)N3CCCC3)C2)c(C)c1 (stereo not drawn)		inconclusive: 22.4 µM [activator, partial curve, poor fit]
